# From ChEMBL document CHEMBL4888484, “Replenishing the malaria drug discovery pipeline: Screening and hit evaluation of the MMV Hit Generation Library 1 (HGL1) against asexual blood stage Plasmodium falciparum ,using a nano luciferase reporter read-out” (2022)
# Out of some 150,000 compounds screened, about 540 (0.36%) showed an effect of 50% or more. The list shows a part of the results.
# Tested on: Plasmodium falciparum
# Test: Primary screen in NF54 nanoGlo assay, in single point, at 2uM, 72h; a lower Z score goes with more inhibition
# Assay type: functional, Erythrocyte
# Details: timepoint 72 hour
Structure (SMILES),% Inhibition,Z score
CCNC(=O)C1Cc2cc(C(F)(F)F)ccc2N2CCN(Cc3ccc(F)cc3)CC12 (configuration not stated),3%,-0.31
Cc1cc(Br)cc(C(=O)NC[C@@H](C)CCO)c1,-7%,0.67
Cc1cc(CN(C)C(=O)c2cn(C(C)C)nn2)no1,-9%,1.14
Cc1nc2ccccc2c(=O)n1-n1c(-c2ccccc2)cc(C(F)(F)F)c(C#N)c1=O,2%,-0.3
C[C@H]1CCN(Cc2ccncc2)CCN1Cc1ccccc1,-16%,3.16
Oc1ccc(CN(Cc2ccco2)c2nc3ccccc3o2)cc1,35%,-3.93
CN(CCCS(C)(=O)=O)Cc1cc(F)c(F)cc1F,-13%,1.47
O=C(c1nnc(C(=O)N2CCCCC2)nn1)N1CCCCC1,4%,-0.48
CC1CC(C)CN(C(=O)C2CCN(c3ncnc4c3nc3n4CCCCC3)CC2)C1 (configuration not stated),-5%,0.81
CC1(C)C(=O)OCCN1S(=O)(=O)c1ccc(Cl)cc1,-4%,0.54
Cc1ccc(NC(=O)[C@H](C(C)C)N2CCCS2(=O)=O)c(F)c1Cl,-9%,1.72
O=C(Nc1ccccc1N1CCCC1=O)c1cc2cc(Cl)ccn2n1,-7%,0.74
Cc1csc(S(=O)(=O)N2CCCc3ncccc32)c1,-8%,1.37
CN1C[C@@H](Cn2cc(Br)cn2)CC1=O,-15%,1.69
COC(=O)c1[nH]c(C)cc1NC(=O)c1nc(C(C)C)cs1,-16%,3.1
Cc1ccc(N2CCOC2=O)c(C2=CCCCC2)c1,-5%,0.7
Cc1nnc(N2CCC[C@H](c3nc(N(C)C)no3)C2)c(C#N)c1C,-17%,2.65
CN(Cc1ccn(C)n1)C(=O)c1cc(S(=O)(=O)N(C)C)c(Cl)cc1Cl,30%,-0.7
O=C(C1=CCCCC1)N(CC1CCN(C2Cc3ccccc3C2)CC1)C[C@H]1CCCO1,-12%,1.58
Cc1cc(-n2nnc3ccccc32)nc(C)n1,35%,-0.8
O=C1NC2(CCCCCCC2)C(=O)N1Cc1nc(-c2ccco2)no1,-9%,1.5
COc1ccc(CCNC(=O)CN2CCn3nc(C#N)cc3C2)cc1,-2%,0.41

Structure (SMILES),% Inhibition,Z score
O=C(Cn1c(=O)n(Cc2ccc3c(c2)OCO3)c(=O)c2sccc21)NCc1ccccc1,-15%,2.85
O=C(NCCCc1ccco1)N1CCCC[C@@H]1CN1CCCC1,-11%,1.78
COc1ccc(N2C(=O)N(Cc3cccc(F)c3)S(=O)(=O)c3cccnc32)cc1,-4%,0.65
COC1CN(c2nnc(C3CC3)s2)C1,-16%,1.87
Nc1cc(Cl)ccc1OCC(F)(F)F,-2%,0.42
O=C(CC1CCCCC1)Nc1ccccn1,4%,-0.41
COCCCNC(=O)c1snnc1C(C)(C)C,-2%,0.21
OCCC1CCCC1NCc1ccc(Br)o1 (configuration not stated),-8%,0.87
Cn1c(C(=O)NC2CCCCC2)cc2c1CCN(Cc1ccccc1)C2,-1%,0.09
COc1ccc(N2CC(C(=O)N3C4C=CCC3CC4)CC2=O)cc1 (configuration not stated),-5%,0.62
CCOC(=O)C1(CNC(=O)N2CCO[C@H](C(F)F)C2)CCCC1,3%,-0.35
Cc1c(C)[n+]([O-])c([C@@H](c2ccc3ncccc3c2)C2C(=O)OC(C)(C)OC2=O)n1Cc1ccccc1,1%,-0.18
Cn1nccc1NC(=O)NC1CN(c2ccc(C(F)(F)F)cc2)C1,-7%,1.27
C=CCN(CC=C)S(=O)(=O)c1c(F)cccc1F,-15%,1.78
O=C1NCCCC[C@@H]1N1CCc2ccccc2C1,-10%,1.27
CS(=O)(=O)NCc1ccc(-c2ccco2)nc1,-6%,0.63
Cc1csc(CN(C)C(=O)c2cc[nH]c2C)n1,-9%,1.81
CCOc1ccc(N2CCC[C@H](NC(=O)C(C)C)C2)nn1,-13%,1.37
Cc1ccc(Cc2ccccc2C(=O)N[C@H]2CS(=O)(=O)C[C@@H]2O)cc1F,-7%,0.73
CCOC(=O)[C@@H](NCc1nc2c(F)cccc2n1CC)C1CC1,-7%,1.06
O=C(Nc1ccccc1)OC1CCCC(NC(=O)C2CC(=O)N(c3ccc(F)cc3)C2)C1 (configuration not stated),-3%,0.38
CC(=O)c1c(C)cccc1NS(=O)(=O)CCCC(F)(F)F,-18%,2.08

Structure (SMILES),% Inhibition,Z score
Cc1occc1C(=O)NCC(F)(F)C(F)F,-4%,0.7
CCn1c(CN[C@H](c2ccccc2)c2cccs2)nc2cc(S(=O)(=O)N3CCCCC3)ccc21,14%,-1.61
C[C@H](NC(=O)CN1CCCC1=O)c1ncc(-c2ccccc2)o1,-13%,1.66
CN([C@@]1(C#N)CCOC1)S(=O)(=O)c1ccccc1Br,-13%,2.34
Cc1ccc(-c2csc(N3CCC(n4cncn4)CC3)n2)cc1,-19%,2.92
Cc1cc(Cl)cc(C)c1NC(=O)N(CCO)Cc1nccn1C,-13%,1.81
c1ccc(-c2ncc(CN3CC(c4cccnc4)C3)s2)cc1,-14%,1.29
CC(C)[C@H](NC(=O)NCCc1ncnn1C)c1ccccc1Cl,35%,-4.75
O=C(NCC1CCN([C@H]2CCOC2)CC1)c1cccc(Br)c1,-5%,1.08
CC1(C)CS(=O)(=O)N(c2cccc(C(=O)N3CCc4ccccc4C3)c2)C1=O,-2%,0.28
CC(C1CC1)N(C)C(=O)C1COc2ccccc2C1 (configuration not stated),-3%,0.26
Cc1ccc(-n2nnnc2N2CCOC3(CCCC3)C2)cc1,-3%,0.39
Cc1cnc(CNC(=O)NC[C@H](C)N(C)Cc2ccccc2)s1,6%,-0.59
Cc1nc(C)c(F)c(NCCCc2cnoc2)n1,2%,-0.29
NC(=O)C1CCCN(Cc2ccc(NCC3CCC=CO3)cc2)C1 (configuration not stated),3%,-0.56
Fc1ccc(CN2CCC(OCc3cccnc3)CC2)c(F)c1Cl,0%,0
O=C(c1cc2n(n1)CCCO2)N1CCN(Cc2ccncc2)CC1,-13%,2.08
CCOC(=O)c1cnccc1N1CCC[C@H](N(C)C)C1,-13%,1.39
COc1c(Cl)cc(Cl)cc1CNC(C)C,35%,-1.04
CC[C@]1(O)CCCN(C(=O)c2n[nH]nc2C)C1,-2%,0.37
CC[C@@H](C#N)NC(=O)c1ncccc1O,-20%,3.88
O=C(Nc1cc(C(=O)N2CCN(CCO)CC2)c2c(c1)ncn2C1CCCC1)c1ccccc1,-4%,0.42

Structure (SMILES),% Inhibition,Z score
COc1ccc(OC)c([C@@H]2CCCN2Cc2ccn(-c3ccccc3)n2)c1,3%,-0.34
CCc1nnsc1C(=O)N[C@@H](C)c1cc(C)sc1C,-2%,0.45
CC1CCN(C(=O)CNC(=O)c2ccco2)CC1,1%,-0.17
Cc1ccc(-n2ncc3c(N)c4c(nc32)CCCC4=O)cc1,12%,-2.26
COCC(=O)N1CC[C@@H]2N(C(=O)c3n[nH]c4c3CCC4)CCC[C@@]2(CO)C1,-7%,1.12
C/C(=C\c1ccccc1)CN1CCCn2nc(CN3CCC(F)CC3)cc2C1,1%,-0.09
O=S1(=O)NC[C@H](O)CN(Cc2cccs2)C[C@@]2(COc3cc(-c4ccccc4F)ccc31)C[C@@H](O)[C@@H](O)C2,-18%,2.26
CC(C)(C)CC(=O)N1CCC(S(C)(=O)=O)CC1,-2%,0.42
CC1CC1C(=O)NCCC(=O)N1CCCC1c1nc(-c2cccc(C(F)(F)F)c2)c[nH]1 (configuration not stated),1%,-0.12
Cc1ccc(N2C[C@@H](C(=O)Nc3ccc4c(c3)CCC4)CC2=O)cc1,1%,-0.13
COC(=O)CCN1C[C@H](OCc2cccc(OC)c2)CN(C(=O)c2ccc(C)c(C)c2)CC1=O,-8%,1.04
CC(NC1CCOC(C2CC2)C1)[C@H]1CCCN1C(=O)OC(C)(C)C (some centres not stated),-16%,1.78
COc1c(C)cc(-c2ccc3nc(-c4ccccc4O)oc3c2)cc1C,-6%,0.83
COc1ccc(-n2nc3nc(N4CCN(C(C)C)CC4)nc(-c4ccccc4)c3c2N)cc1,-7%,1.11
NC1CCCCCC1C(=O)N(CC1CC1)CC1CC1 (configuration not stated),-13%,1.29
CCN(C)c1nc(N2CCN(c3ccccc3)CC2)nc2c1CN(C(=O)c1ccccc1Cl)CC2,1%,-0.24
O=C(c1cc(F)cc(Cl)c1)N1CCN(CCO)[C@@H]2CS(=O)(=O)C[C@@H]21,-6%,0.8
COCc1nc([C@H]2CCOC2)cc(N(C)Cc2[nH]c3ccccc3c2C)n1,5%,-0.76
O=C(c1cnc(-c2ccccn2)nc1O)N1CCC(C(=O)N2CCCC2)CC1,-7%,1.38
COc1ccc(-c2nc(C3CCC3)n[nH]2)cc1F,-7%,1.36
